Consider 88 molecules from article PMC4336329 (PLoS ONE, 2015).

Among all 310,000 compounds or so, about 2,200 (0.71%) showed an effect of 50% or more. The effect is printed as a negative number. The list shows a part of the results.

The target in this assay is human ether-à-go-go-related gene (hERG) potassium channel (human, UniProt Q12809). The experiment in a line: primary screen, population patch clamp on CHO cells stably expressing hERG.
Chain of human ether-à-go-go-related gene (hERG) potassium channel (Q12809 whole entry, looked up): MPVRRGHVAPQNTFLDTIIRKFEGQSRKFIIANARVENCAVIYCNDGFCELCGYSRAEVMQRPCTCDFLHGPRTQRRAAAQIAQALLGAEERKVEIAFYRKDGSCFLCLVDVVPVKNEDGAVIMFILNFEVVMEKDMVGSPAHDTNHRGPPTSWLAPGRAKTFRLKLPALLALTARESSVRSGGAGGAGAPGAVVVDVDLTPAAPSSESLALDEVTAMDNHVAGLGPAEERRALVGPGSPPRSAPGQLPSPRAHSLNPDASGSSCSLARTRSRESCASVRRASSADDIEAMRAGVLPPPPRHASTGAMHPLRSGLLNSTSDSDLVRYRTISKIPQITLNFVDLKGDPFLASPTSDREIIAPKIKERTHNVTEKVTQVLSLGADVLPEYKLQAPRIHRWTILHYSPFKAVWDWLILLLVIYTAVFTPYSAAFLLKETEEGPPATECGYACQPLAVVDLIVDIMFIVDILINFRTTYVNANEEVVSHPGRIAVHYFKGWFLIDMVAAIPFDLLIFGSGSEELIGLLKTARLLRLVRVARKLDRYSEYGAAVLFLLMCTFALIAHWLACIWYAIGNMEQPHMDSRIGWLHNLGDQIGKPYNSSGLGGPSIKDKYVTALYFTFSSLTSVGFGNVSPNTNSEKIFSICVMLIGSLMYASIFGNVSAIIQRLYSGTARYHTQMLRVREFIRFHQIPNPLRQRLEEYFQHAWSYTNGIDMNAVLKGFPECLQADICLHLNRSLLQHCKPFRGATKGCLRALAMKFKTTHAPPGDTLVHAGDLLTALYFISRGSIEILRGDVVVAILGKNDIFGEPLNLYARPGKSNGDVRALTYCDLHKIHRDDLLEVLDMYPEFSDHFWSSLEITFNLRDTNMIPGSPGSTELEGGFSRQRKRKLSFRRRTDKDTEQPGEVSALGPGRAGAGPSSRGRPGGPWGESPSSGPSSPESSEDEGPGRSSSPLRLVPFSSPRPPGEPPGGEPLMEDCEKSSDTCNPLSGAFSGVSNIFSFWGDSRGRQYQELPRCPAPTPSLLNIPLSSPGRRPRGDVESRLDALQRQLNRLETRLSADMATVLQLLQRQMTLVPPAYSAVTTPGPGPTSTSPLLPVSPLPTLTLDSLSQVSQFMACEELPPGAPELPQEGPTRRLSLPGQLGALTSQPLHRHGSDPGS
As for `CCCCN(C)CCNC(=O)C1CCCN(S(=O)(=O)c2cccc3nsnc23)C1` (stereo not shown), the “hERG current change (%, negative = inhibition) at 1uM” value is on record as -1.28%.

As for `Cc1nc2ccccc2c(N)c1C(=O)/C=C/c1ccccc1`, the “hERG current change (%, negative = inhibition) at 1uM” value is listed as -29%. In the case of `CCCCCOC(=O)Nc1ccc(S(=O)(=O)Nn2cnnc2)cc1` it was 7.36%; in that of `O=C(CN(C(=O)c1ccc(Cl)cc1)N1C(=O)C2CCCCC2C1=O)c1ccc(Cl)cc1` (stereo not shown), 9.14%. On to `COCCNc1nc(N)c([N+](=O)[O-])c(NC2CCCCC2)n1`, for which the “hERG current change (%, negative = inhibition) at 1uM” value was determined as 6.89%. Regarding `Cc1ccc(NS(=O)(=O)c2cccs2)cc1S(=O)(=O)N1CCCCCC1`, the “hERG current change (%, negative = inhibition) at 1uM” value came out at 16.5%. In the case of `Cc1ccc(S(=O)(=O)N2CCCCC2)cc1NC(=O)COC(=O)CNC(=O)c1cc(Cl)cc([N+](=O)[O-])c1` it was 2.42%; in that of `CCc1cccc(C)c1NC(=O)CCOc1ccccc1`, 12.1%; in that of `Cc1ccc(S(=O)(=O)N2CCOCC2)cc1NC(=O)COC(=O)CCn1c(C)csc1=O`, 5.21%. Next, `COc1ccccc1-c1sc2cc3c(cc2c1-c1ccc2c(c1)OCO2)OCO3`: 8.66%; `CC(=O)Nc1ccc2nc(-c3ccccn3)[nH]c2c1`: 3.78%; `CCCCCCCCCC(=O)OCC(O)CO` (stereo not shown): 9.55%.

As to `CCOc1nc(-c2ccccc2)c2cc(C)ccc2n1`, the “hERG current change (%, negative = inhibition) at 1uM” value was found to be 9.98%.

Regarding `O.OC[C@H]1O[C@@H](n2cnc3c(NC4CCCC4)nc(Cl)nc32)[C@H](O)[C@@H]1O`, the “hERG current change (%, negative = inhibition) at 1uM” value is given as 3.87%. Next, `CC(NC(=O)c1cc(S(=O)(=O)N2CCCC2)ccc1Cl)c1ccccn1` (stereo not shown): 13%; `CC(=O)O[C@H]1CC[C@@]2(C)C(=CC[C@H]3[C@@H]4CC[C@H](C(C)=O)[C@@]4(C)CC[C@@H]32)C1`: 15.1%. Next, `O=C1/C(=C/c2ccc(O)cc2)COc2ccccc21`: 20.1%. In the case of `Cc1ccnc(OC(C(=O)O)C(OCc2ccccc2)(c2ccc(F)cc2)c2ccc(F)cc2)n1` (stereo not shown) it was 18.7%; in that of `Cc1cc(C)n(-c2cc(O)c(-n3nc(C)cc3C)cc2O)n1`, 17.2%. Take `CCCNC(=S)N1CCN(CC)CC1.O=C(O)C(=O)O`: the “hERG current change (%, negative = inhibition) at 1uM” value is on record as 7.7%.

Take `O=C(OCC(=O)N1CCc2ccccc2C1)c1cc(=O)[nH]c2ccccc12`: the “hERG current change (%, negative = inhibition) at 1uM” value is on record as 10.2%. Next, `CCc1nn2cc(C(=O)c3cc(C)ccc3O)cnc2c1-c1ccc(F)cc1`: 14.3%; `Cc1nnc(SCc2ccc(Cl)c(Cl)c2)s1`: 11.3%; `CCN1CCN(C(=O)CN(c2ccc(F)cc2)S(=O)(=O)c2ccc(OC)c(OC)c2)CC1`: -19.4%. In the case of `Cc1cccc(N=C2NC(=O)/C(=C/c3cccs3)S2)c1` it was 14.4%. Next, `NC(=O)C1(N2CCCCC2)CCN(C(=S)Nc2ccc(S(N)(=O)=O)cc2)CC1`: 11.8%. As to `O=C(NCc1ccc(F)cc1)c1ccc(Cl)c(NC2=NC3CS(=O)(=O)CC3S2)c1` (stereo not shown), the “hERG current change (%, negative = inhibition) at 1uM” value is reported as 2.71%. In the case of `O=C(CN1Cc2ccccc2C1=O)Nc1ccc2c(c1)OCCO2` it was 6.01%; in that of `CCCCn1c(N)c(N(CC(C)C)C(=O)c2cc(S(=O)(=O)N3CCCCC3)ccc2C)c(=O)[nH]c1=O`, 15.5%. As to `C=CCSc1nnc(NC(=O)c2ccc(N3CCCC3=O)cc2)s1`, the “hERG current change (%, negative = inhibition) at 1uM” value is recorded as 11.8%.

Turning to `CCOC(=O)c1cnc2c(c(C)nn2C)c1Oc1cc(Cl)cc(Cl)c1`, the “hERG current change (%, negative = inhibition) at 1uM” value is 12.2%. For the molecule `O=C(CC(=O)N/N=C\c1c(Cl)cccc1Cl)NCc1ccccc1`, the “hERG current change (%, negative = inhibition) at 1uM” value is 9.58%.

In the case of `Cc1cccc(C)c1NC(=O)C(=O)NCc1ccccn1`, the “hERG current change (%, negative = inhibition) at 1uM” value worked out at 3.24%. `CCC(=O)N1c2ccccc2NC2=C(C(=O)CC(c3ccco3)C2)C1c1ccco1` (stereo not shown): the “hERG current change (%, negative = inhibition) at 1uM” value stood at 3.54%. In the case of `Cc1cc(NCCCn2ccnc2)n2nc(-c3ccc(Cl)cc3)cc2n1` it was -14.7%; in that of `CCc1ccc(NC(=S)N2CCCC2)cc1`, 15.3%; in that of `O=C(c1ccco1)N1CCN(S(=O)(=O)c2cccc3nsnc23)CC1`, 1.54%.

Consider `Nc1ccc2oc(-c3cc(Br)ccc3Cl)nc2c1`, for which the “hERG current change (%, negative = inhibition) at 1uM” value stood at 5.83%.

On to `CC(C)CC(=O)Nc1nnc(SCC(=O)NCc2ccco2)s1`, for which the “hERG current change (%, negative = inhibition) at 1uM” value stood at 7.7%. In the case of `CSCCC(NC(=O)c1ccccc1)C(=O)N/N=C(\C)Cc1ccccc1` (stereo not shown), the “hERG current change (%, negative = inhibition) at 1uM” value stood at 9.78%.

`O=C(c1ccc(N2CCCC2=O)cc1)N1CCN(c2ccccc2O)CC1`: the “hERG current change (%, negative = inhibition) at 1uM” value is -8.28%. In the case of `O=C1Nc2cc(C(=O)N3CCC(N4CCCCC4)CC3)ccc2S/C1=C\c1ccccc1` it was -1.99%. Next, `Cn1c(=O)c2[nH]cnc2n(-c2ccccc2)c1=O`: 5.46%.

Consider `Cc1ccc(C)c(C(=O)CSc2n[nH]c(C)n2)c1`, for which the “hERG current change (%, negative = inhibition) at 1uM” value is 0.472%. As for `COc1cc(CC(=O)NCC2CCCCC2)cc(OC)c1OC`, the “hERG current change (%, negative = inhibition) at 1uM” value is reported as 15.4%.

Consider `Cc1sc(NC(=O)C2CCCCC2C(=O)O)c(C(N)=O)c1-c1ccccc1` (stereo not shown), for which the “hERG current change (%, negative = inhibition) at 1uM” value stood at 12.2%.

As for `O=C(Nc1cccc(S(=O)(=O)C(F)F)c1)c1ccc(S(=O)(=O)N2CCCCC2)cc1`, the “hERG current change (%, negative = inhibition) at 1uM” value came out at 8.37%.

As to `CC(C)(C)C(=O)COC(=O)c1cc(-c2cccnc2)nc2ccccc12`, the “hERG current change (%, negative = inhibition) at 1uM” value is recorded as -3.68%.

Take `O=C(Nc1cnc2ccccc2c1)C1COc2ccccc2O1` (stereo not shown): the “hERG current change (%, negative = inhibition) at 1uM” value is reported as -6.77%. Regarding `Cc1ccc(NS(=O)(=O)c2cc(NC(=O)c3cc4c(s3)CCCC4)ccc2C)c(C)c1`, the “hERG current change (%, negative = inhibition) at 1uM” value is reported as 7.78%. In the case of `CCN(CC)CCSc1nc2ccccc2n1Cc1ccccc1.Cl` it was -79%; in that of `COc1ccccc1CNC(=O)N[C@@H](Cc1ccccc1)C(=O)O`, 4.81%. Next, `O=C1NC(=O)/C(=C\c2ccc(O)cc2O)S1`: 12.8%. `CN1CCN(c2nc(-c3ccccc3Cl)nc3ccccc23)CC1`: the “hERG current change (%, negative = inhibition) at 1uM” value is given as -19.8%. As to `CCOc1cc(C2NC(=O)NC(O)(C(F)(F)F)C2C(=O)c2ccccc2)ccc1OC` (stereo not shown), the “hERG current change (%, negative = inhibition) at 1uM” value was 0.368%. Take `Cc1ccc(S(=O)(=O)c2nc(-c3ccc(F)cc3)oc2SCC(=O)NCC2CCCO2)cc1` (stereo not shown): the “hERG current change (%, negative = inhibition) at 1uM” value is given as 12.6%.

In the case of `Cc1cccc(Cn2cc3c(=O)n(Cc4cccc(F)c4)nc-3c3ccccc32)c1`, the “hERG current change (%, negative = inhibition) at 1uM” value turned out to be 12.5%. Next, `O=C(CS(=O)(=O)c1ccccc1)Nc1ccc(S(=O)(=O)Nc2ncccn2)cc1`: 20.8%. In the case of `CC(C)CCNC(=O)CN(CC1CCCO1)C(=O)CCC(=O)Nc1nccs1` (stereo not shown) it was 11.2%; in that of `CCOC(=O)NC(=O)/C(N=Nc1cc(C)cc(C)c1)=C(\C)O`, 12.3%; in that of `COC(=O)c1ccc(OCCOc2ccc(C(=O)OC)cc2)cc1`, -12.9%.

For `COc1ccc(CC(=O)NCCCSc2ccccc2)cc1OC`, the “hERG current change (%, negative = inhibition) at 1uM” value is on record as 6.49%. In the case of `Cc1ccc(C(=O)NCC(=O)N2CCCCCCC2)cc1C` it was 6.7%; in that of `CC(Oc1ccccc1Cl)C(=O)N1CCOCC1` (stereo not shown), 13.4%. With `C=CCSc1nnc(-c2cc3c(-c4ccccc4)nn(C)c3s2)n1C`, the “hERG current change (%, negative = inhibition) at 1uM” value is on record as 7.5%. For the molecule `O=C(COc1ccc(S(=O)(=O)N2CCCC2)cc1)NCc1cccnc1`, the “hERG current change (%, negative = inhibition) at 1uM” value came to 6.1%. In the case of `COc1c(F)c(F)c(C(=O)Nc2ccc(-c3nc4ccccc4[nH]3)cc2)c(F)c1F` it was 13.3%; in that of `CSc1ccc(/C=C(\NC(=O)c2ccc(C)cc2)C(=O)Nc2cccc(C)c2)cc1`, 14.4%. In the case of `Cc1ccccc1S(=O)(=O)Cc1ccc(C(=O)NCCCN(C)Cc2ccccc2)o1` it was -0.242%; in that of `CCc1cc2c(=O)nc3n(c2s1)Cc1ccccc1/C3=C(/O)c1ccc(F)cc1`, -3.5%. In the case of `O=C(c1ccccc1Cc1ccccc1)N1CCN(S(=O)(=O)c2ccc(F)cc2)CC1`, the “hERG current change (%, negative = inhibition) at 1uM” value was found to be 14%.

With `CCN=C(Nc1ccc2c(c1)OCO2)SC1CC(=O)N(c2ccc(OC)cc2)C1=O` (stereo not shown), the “hERG current change (%, negative = inhibition) at 1uM” value was found to be 9.61%.

In the case of `Cc1cnc(C(=O)OCc2ccc(Br)cc2)cn1`, the “hERG current change (%, negative = inhibition) at 1uM” value is 12.9%.

As for `O=C(NC(=S)NCCc1ccccc1)c1ccco1`, the “hERG current change (%, negative = inhibition) at 1uM” value came out at 10.1%.

Take `CCOc1ccc(C2=Nn3c(nnc3-c3ccccn3)SC2)cc1`: the “hERG current change (%, negative = inhibition) at 1uM” value is listed as 3.6%.

Turning to `Cc1csc2c(N3CCN(C(=O)NC(C)(C)C)CC3)ncnc12`, the “hERG current change (%, negative = inhibition) at 1uM” value came to 12.7%. As for `CC(C)n1cc(/C=C2/NC(=O)N(c3cccc(Cl)c3)C2=O)c2ccccc21`, the “hERG current change (%, negative = inhibition) at 1uM” value is reported as -0.492%. Next, `CCN(CC)c1ccc(NC(=O)OC)cc1`: 7.78%; `O=C(CSc1nncs1)NCCCc1ccccc1`: 23.5%; `CCOc1ncccc1C(=O)NCCN1C(=O)S/C(=C/c2cccs2)C1=O`: 9.27%.

In the case of `N#CCCN(C(=S)NC(=O)c1ccco1)c1ccccc1F`, the “hERG current change (%, negative = inhibition) at 1uM” value stood at 10.1%. Next, `CC(C)NC(=O)C(=O)Nc1ccc2c(c1)N(S(=O)(=O)c1cccs1)CCC2`: 14%; `O=C(Nc1cccc(F)c1)c1ccc(S(=O)(=O)NCC2CCCO2)cc1` (stereo not shown): 2.38%. Consider `Cc1cc([N+](=O)[O-])cc(/C=N\NC(=O)C2COc3ccccc3O2)c1O` (stereo not shown), for which the “hERG current change (%, negative = inhibition) at 1uM” value came to 8.95%.

Consider `CN(C(=O)c1ccc(Br)o1)C1CCCCC1`, for which the “hERG current change (%, negative = inhibition) at 1uM” value is recorded as 6.44%.

For the molecule `O=C(CN1CCN(S(=O)(=O)c2ccccc2)CC1)NC(=O)NC1CCCCC1`, the “hERG current change (%, negative = inhibition) at 1uM” value came to 1.63%.

As to `Cc1cc2nc3c(nc2cc1C)CCCC3`, the “hERG current change (%, negative = inhibition) at 1uM” value turned out to be 11.3%.

For `CC(C)(C)c1ccc(C2=CC(c3ccccc3F)n3ncnc3N2)cc1` (stereo not shown), the “hERG current change (%, negative = inhibition) at 1uM” value came out at 3.19%.
